Reference: PubChem BioAssay AID1963576 (National Center for Advancing Translational Sciences (NCATS), 2024)
The campaign covered roughly 46,000 compounds. About 60 (0.1%) were called active. Not shown: some 3% with an inconclusive outcome. The call rests on the fitted dose curve; in most records, active means well fitted inhibition curve with a large enough effect; inconclusive means small, poorly fitted or top-dose-only effect; inactive means no such curve, though single readings can be large or run the other way. The list shows a part of the results.

experiment: Primary qHTS assay for Inhibitors of ovarian cancer metastasis using an organotypic tumor microenvironment (TME) model.; further: nearly all actives have a fitted effect of over 65% in size;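 on activity change, negative = inhibition: plate controls were DMSO wells for no effect and tomatine positive control wells for full effect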; conditions: SKOV3ip1-GFP adhesion/invasion on 3D omental model, fluorescence; series mostly up to 45.8 µM; activity change, negative = inhibition: at the top concentration
Procedure, shortened: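 Adhesion/invasion was scored as fixed GFP-labeled SKOV3ip1 cell counts (488/509 nm), normalized to DMSO and tomatine controls. Cancer cells in serum-free medium, with four compound doses (0.36-46 umol/L), sat 2 hr at RT then 16 hr at 37 C on a 48 hr fibroblast/mesothelial/ECM culture.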

Activity change, negative = inhibition, inactive:
CCOC(=O)c1c(C)[nH]c(C)c1S(=O)(=O)N1CCC(C(=O)N2CCN(c3cccc(Cl)c3)CC2)CC1 -5.16%
Cc1ccccc1-c1noc(-c2cccnc2NCc2ccco2)n1 1.16%
COc1ccc(-c2cn3nc(N4CCCC(C(=O)Nc5cccc(Cl)c5C)C4)sc3n2)cc1 (configuration not stated) -9.78%
CN(C)CCNC(=O)c1ccc2c(c1)N(Cc1ccccc1)C(=O)c1ccccc1S2(=O)=O -6.49%
CCOCCn1ccc2c(OCC(=O)NCc3ccc(C)cc3)cccc2c1=O 5.1%
O=C(CN1C(=O)COc2ccc(S(=O)(=O)N3CCCC3)cc21)N1CCN(c2ccc(Cl)cc2)CC1 -21.7%
COc1cccc(-n2cc(C(=O)OCc3ccc(F)c(F)c3)c3ccccc3c2=O)c1 4.41%
COCCCNC(=O)N1[C@H](c2cccs2)[C@@H](C)C(=O)[C@@H](C)[C@@H]1c1cccs1 -11.8%
COc1ccc(C(=O)Nc2nnc(S(=O)(=O)N3CCCc4ccccc43)s2)cc1 -2.79%
CCOc1ccccc1-n1nnc(-c2nc(-c3ccccc3C)no2)c1C 10.9%
Cc1ccc2nc(-c3cccc(NC(=O)c4ccc(Br)o4)c3)oc2c1 -0.437%
O=C(O)c1cccc(Nc2ncnc3ccc(Br)cc23)c1 0.119%
Cc1nn(C)c2c1c(C(F)(F)F)cc(=O)n2CC(=O)N1CCCCC1 13.7%
CCOC(=O)c1c(NC(=O)c2ccc(Br)cc2)sc2c1CCCC2 0.446%
CCCCNc1nc2c(c(=O)n(C)c(=O)n2C)n1CC(O)COc1ccccc1C (configuration not stated) 5.29%
O=C(Nc1ccc(F)c(Cl)c1)C1CCN(S(=O)(=O)c2ccc3[nH]c(=O)ccc3c2)CC1 -2.39%
Cc1ccccc1NC(=O)c1cccc2c(=O)c3c([nH]c12)CCCC3 0.287%
Cc1ccc2cc(CN(C)C(=O)c3cccc(Cl)c3)c(=O)[nH]c2c1 -4.68%
Cc1ccc(Cl)cc1NC(=O)N1CCC(CN2CCCCCC2)CC1 -1.48%
CCC1CN(C(=O)Nc2cc(C)ccc2OC)c2cc(Cl)ccc2O1 (configuration not stated) -17.1%
CCCCC(=O)OCc1cc(=O)n2nc(C3CCCCC3)sc2n1 15%
CCOc1cc(N)c(Cl)cc1C(=O)NCC1CN(Cc2ccc(F)cc2)CCO1 (configuration not stated) 13.9%
Cc1cc(C)cc(OCC(=O)NC(Cc2c[nH]c3ccccc23)C(=O)O)c1 (configuration not stated) -8.19%
CCOc1ccc(S(=O)(=O)Nc2ccc3oc(C)c(C(=O)OC(C)C)c3c2)cc1 -2.77%
Cc1cccc(OCC(=O)Nc2c(C(=O)N3CCN(c4ccccc4F)CC3)oc3ccccc23)c1 28.3%
Cc1cc(C)n(-c2nc3ccccc3nc2Nc2ccc(Cl)c(Cl)c2)n1 -13.8%
COc1ccccc1NCc1cccn1-c1nnc(N2CCCCCC2)s1 -2.27%
O=C(Nc1ccccc1)N(Cc1cccs1)c1ccc(F)cc1 2.4%
COc1ccc(C2c3c(n(C)c4ccccc34)C(=O)N2CC(=O)Nc2cc(Cl)ccc2C)cc1 (configuration not stated) 9.12%
Cc1ccc2onc(CC(=O)Nc3cccc(C(F)(F)F)c3)c2c1 -14%
CCCN(C(=O)c1cc2c(=O)oc3ccccc3c2s1)c1cccc(Cl)c1 17.7%
CCCc1cc(=O)n2[nH]c(NC(=O)c3ccccc3Cl)nc2n1 3.65%
CCOC(=O)c1ccc(N2C(=O)c3[nH]nc(-c4ccc(OC)cc4)c3C2c2ccccc2Cl)cc1 (configuration not stated) 7.04%
Cc1ccc(NC(=O)N2CCc3cc(S(=O)(=O)N4CCC(C)CC4)ccc32)cc1F 0.342%
CCc1cccc(NS(=O)(=O)c2ccc3c(c2)n(C)c(=O)c(=O)n3C)c1 7.11%
COc1cccc(CNC(=O)c2cc(S(=O)(=O)N3CCCCCC3)cn2C)c1 -10.3%
CCOC(=O)c1sc(N2C(=O)c3oc4ccc(C)cc4c(=O)c3C2c2ccccc2F)nc1C (configuration not stated) -2.02%
CCc1ccc(NC(=O)c2ccc(F)c(S(=O)(=O)NCc3ccc(Cl)c(Cl)c3)c2)cc1 3.43%
CCN(CC)S(=O)(=O)c1ccc2c(c1)N(CC(=O)N1CCN(c3cccc(OC)c3)CC1)C(=O)CO2 -4.08%
Cc1c(Nc2nc3ccccc3n3c(C)nnc23)cccc1C(=O)O 2.53%
CCOc1ccccc1CNC(=O)c1ccc2c(c1)nc1n2CCCCC1 10%
Cc1ccc(Cl)cc1-n1ncc2c(NCCCc3ccccc3)ncnc21 9.39%
CN(C)c1ccc(-c2nc(-c3ccco3)no2)cc1[N+](=O)[O-] 0.408%
COc1ccc(NC(=O)c2ccco2)cc1NC(=O)COc1ccc(Cl)c(C)c1 4.06%
Cc1ccc(NC(=O)N2CC3CCCN3c3ccccc32)c(C)c1 (configuration not stated) -5.98%
CCOc1ccc(C(=O)Nc2c(C(=O)N3CCN(c4ccccc4F)CC3)oc3ccccc23)cc1 -0.252%

outcome, inactive:
CCCSc1ncc(Cl)c(C(=O)NCc2ccc(OC)cc2)n1
Cc1ccccc1NC(=O)CSc1nnc(COc2ccc(Cl)cc2)o1
COc1ccccc1CNC(=O)CCn1c(=O)c2ccccc2n(CC(=O)Nc2ccc(Br)cc2F)c1=O
Cc1ccc(O)c(NC(=O)c2noc3c2CCCC3)c1
Cc1ccc2c(c1)N(S(=O)(=O)c1cc(-c3onc(C)c3C)ccc1C)CCO2
O=C(Cn1cc(C(=O)c2ccncc2)c(=O)c2cc(F)ccc21)Nc1ccc(Cl)cc1
Cc1ccc(NC(=O)CSc2ccc3nnc(CCNS(=O)(=O)c4ccccc4)n3n2)cc1Cl
CCOC(=O)N1CCN(C(=O)CN(c2cccc(Cl)c2)S(=O)(=O)c2ccccc2)CC1
Cc1ccc(CNC(=O)CCCn2nc(C)c3c(C)n(-c4ccccc4)nc3c2=O)cc1
CCOC(=O)c1c(NC(=O)CSc2cn(CCNC(=O)c3ccc(OC)c(OC)c3)c3ccccc23)sc2c1CCCC2
CCOC(=O)CSc1nc2cc3c(cc2c(=O)n1CCCC(=O)NCCc1ccc(OC)c(OC)c1)OCO3
COc1ccc(-c2cc(-c3ccc4c(c3)NC(=O)CO4)nc3c2COc2ccc(F)cc2-3)cc1
CCOC(=O)c1ccc(-n2c(-c3ccc(C)cc3)c(C)n3c4c(=O)n(C)c(=O)n(C)c4nc23)cc1
CCc1nonc1NC(=O)c1oc2ccc(C)cc2c1C
Cc1ccc(-c2cc(C(=O)N(Cc3ccc(C(C)(C)C)cc3)Cc3ccco3)no2)cc1
Fc1ccc(-n2ncc3c(N4CCCCCC4)ncnc32)cc1
